# In all, about 390,000 compounds went through this assay and about 17,000 (4.4%) were called active. Inconclusive means that the source gave no clear call. Such entries were picked first, then a sample of the others. The call rests on the fitted dose curve; in most records, active means well fitted inhibition curve with a large enough effect; inconclusive means small, poorly fitted or top-dose-only effect; inactive means no such curve, though single readings can be large or run the other way. Potencies of inconclusive entries are doubtful fits and often do not repeat.
# Target: Lysine-specific demethylase 4A (Homo sapiens) (UniProt O75164)
# Assay: qHTS Assay for Inhibitors of JMJD2A-Tudor Domain; further: nearly all actives have a fitted effect of over 50% in size
# Conditions: AlphaScreen JMJD2A-Tudor / H3K4me3 peptide binding; activity change, negative = inhibition: at 114 µM (top of the series)
# On the % scale 0 is the no-effect control and ±100 the full control effect; potency means the concentration at half of the fitted maximal effect; tags describe the fitted curve by direction and shape.
# Sequence of UniProt O75164 (O75164 whole entry, looked up, the tested form may be a part): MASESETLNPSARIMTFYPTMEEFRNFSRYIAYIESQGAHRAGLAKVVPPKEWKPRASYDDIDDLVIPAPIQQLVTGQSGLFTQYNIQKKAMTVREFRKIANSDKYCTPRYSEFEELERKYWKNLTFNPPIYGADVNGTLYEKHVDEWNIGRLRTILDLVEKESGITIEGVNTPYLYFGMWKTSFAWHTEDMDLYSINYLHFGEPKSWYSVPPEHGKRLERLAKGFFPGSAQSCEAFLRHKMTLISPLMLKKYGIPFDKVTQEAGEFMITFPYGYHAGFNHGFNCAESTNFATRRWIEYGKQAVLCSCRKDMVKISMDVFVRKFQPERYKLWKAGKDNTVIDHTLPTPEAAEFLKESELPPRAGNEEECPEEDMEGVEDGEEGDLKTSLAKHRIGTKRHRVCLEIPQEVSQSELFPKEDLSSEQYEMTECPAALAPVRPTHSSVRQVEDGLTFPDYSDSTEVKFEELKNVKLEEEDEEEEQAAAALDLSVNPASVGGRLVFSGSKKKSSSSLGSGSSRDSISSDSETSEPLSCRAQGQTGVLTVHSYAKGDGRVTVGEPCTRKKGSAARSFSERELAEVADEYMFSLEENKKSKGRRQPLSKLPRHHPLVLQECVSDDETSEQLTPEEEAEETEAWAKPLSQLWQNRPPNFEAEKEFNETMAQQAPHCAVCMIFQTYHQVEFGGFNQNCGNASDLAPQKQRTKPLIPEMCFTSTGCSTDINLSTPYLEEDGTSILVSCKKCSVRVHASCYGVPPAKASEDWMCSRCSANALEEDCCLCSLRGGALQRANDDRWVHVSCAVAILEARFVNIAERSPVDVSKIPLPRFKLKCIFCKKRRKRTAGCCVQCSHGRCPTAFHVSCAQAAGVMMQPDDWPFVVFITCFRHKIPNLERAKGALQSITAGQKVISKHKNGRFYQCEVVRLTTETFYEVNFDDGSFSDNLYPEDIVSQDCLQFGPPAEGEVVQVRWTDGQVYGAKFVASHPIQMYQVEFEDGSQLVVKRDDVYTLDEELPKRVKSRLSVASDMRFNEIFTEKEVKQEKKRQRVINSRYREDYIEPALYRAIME
SMILES,Potency,"activity change, negative = inhibition"
O=C1/C(=C\c2ccco2)SC(=S)N1Cc1ccccc1,active: 50.1 µM,
CCCc1cc(=O)[nH]c(SCC(=O)N(C)CC(=O)Nc2ccccc2CC)n1,"inconclusive: 39.8 µM [inhibitor, single point]",
Cc1ncsc1CCOC(=O)c1cccnc1,"inconclusive: 100 µM [inhibitor, single point]",
O=S(=O)(c1cccc(-c2n[nH]c(=S)n2C2CCCC2)c1)N1CCOCC1,active: 3.98 µM,
CCN1C(=O)[C@H]2[C@@H](c3ccc(-c4ccc(Cl)c(Cl)c4)cc3)N[C@@](C)(C(=O)OC)[C@H]2C1=O,"inconclusive: 79.4 µM [inhibitor, partial curve]",
CCOC(=O)N1CCN(C(=O)CSc2ccc3nnc(-c4cccnc4)n3n2)CC1,,inactive: -17.8%
N#C/C(=C\c1cn(CC(=O)O)c2ccccc12)C(=O)NCc1ccccc1,"inconclusive: 89.1 µM [inhibitor, single point]",
CC(=O)/C(=N/Nc1cccc(C)c1)N1CCOCC1,active: 89.1 µM,
CCCSC1=N/C(=C\C=C\c2ccco2)C(=O)S1,active: 15.8 µM,
CCc1ccc(NC(=O)Cn2nc(C)n3cccc3c2=O)cc1,,inactive: 5.86%
CC(C)CC(NC(=O)CC12CC3CC(CC(C3)C1)C2)C(=O)NC1=NCCS1 (stereo unspecified),active: 22.4 µM,
C/C(Cn1cnc([N+](=O)[O-])n1)=N\NC(=O)c1ccc(F)cc1,,inactive: -16.4%
Cc1cccc(/C=N/n2c(COc3ccccc3)n[nH]c2=S)c1,"inconclusive: 63.1 µM [inhibitor, partial curve]",
Cc1ccc(C(=O)N/N=C(/CC(=O)c2cccs2)C(F)(F)F)cc1,"inconclusive: 50.1 µM [inhibitor, partial curve]",
Cc1ccc(C)c(S(=O)(=O)N2CCN(c3nc(CN4CCOCC4)nc4sc(C)c(C)c34)CC2)c1,"inconclusive: 25.1 µM [inhibitor, partial curve]",
COc1cc(OC)cc(-c2nc3ccccc3c(=O)n2OC(=O)c2ccc(Br)cc2)c1,active: 20 µM,
COc1ccc(N2CC(C)Cn3c2nc2c3c(=O)n(Cc3ccccc3F)c(=O)n2C)c(OC)c1 (stereo unspecified),"inconclusive: 20 µM [inhibitor, full curve]",
CCOc1ccc(S(=O)(=O)N2CCOCC2)cc1NC(=O)CSCC(=O)Nc1ccc(OC)cc1,,inactive: -8.27%
CC(c1n[nH]c(=S)n1Cc1ccccc1)N(C)C (stereo unspecified),"inconclusive: 11.2 µM [inhibitor, partial curve]",
CCN1CCN(c2nc3sc4c(c3c(=O)n2-c2ccc(OC)cc2)CCCCC4)CC1,"inconclusive: 50.1 µM [inhibitor, partial curve]",
Cc1ccccc1NS(=O)(=O)c1cc(S(C)(=O)=O)ccc1Cl,,inactive: -12.7%
COC(=O)Cc1cc(=O)n(-c2nc3ccccc3s2)[nH]1,"inconclusive: 56.2 µM [inhibitor, partial curve]",
COc1ccc(N=C2S/C(=C\c3cc(C)n(C)c3C)C(=O)N2CC(C)C)cc1,active: 39.8 µM,
CCN(CC)S(=O)(=O)c1ccc(-c2csc(=Nc3cccc(C(F)(F)F)c3)n2Cc2ccc3c(c2)OCO3)cc1,"inconclusive: 50.1 µM [inhibitor, partial curve, poor fit]",

SMILES,Potency,"activity change, negative = inhibition"
CCc1c(C)nc2ncnn2c1N1CCC(C(=O)NCc2cccc(OC)c2)CC1,"inconclusive: 17.8 µM [inhibitor, full curve, poor fit]",
CCOC(=O)[C@H]1[C@H]2COc3ccc(C)cc3[C@@H]2N2C(=O)c3cc(C)ccc3NC(=O)[C@@]12C,,inactive: -35.4%
O=C(Nc1ncn[nH]1)c1ccc(Cl)c(S(=O)(=O)Nc2ccc(Cl)cc2)c1,"inconclusive: 70.8 µM [inhibitor, single point]",
Cc1cc(C)n2[nH]c(=O)c(N=Nc3cccc(C(F)(F)F)c3)c2n1,"inconclusive: 50.1 µM [inhibitor, partial curve]",
CCCN1CCOC(CC(=O)Nc2ccc([N+](=O)[O-])cc2)C1=O (stereo unspecified),,inactive: -6.01% [at 11.4 µM]
CC1(C)CC(=O)NC=C(c2ccccc2)C1,"inconclusive: 89.1 µM [inhibitor, single point]",
COc1cc(/C=C2\SC(=S)N(NC(=O)c3ccccc3OC)C2=O)ccc1O,"inconclusive: 20 µM [inhibitor, partial curve]",
COc1ccc2[nH]cc(CCNC(=S)NCCc3ccccc3)c2c1,"inconclusive: 79.4 µM [inhibitor, single point]",
COc1ccc(NC(=O)CSc2nnc(-c3ccccc3C)n2N)cc1,,inactive: 0.746%
Cc1ccc(S(=O)(=O)NCCc2nnc3ccc(SCc4ccccc4F)nn23)cc1,,inactive: -21.6%
O=C(c1cc(=O)[nH]c2ccccc12)N1CCN(c2cccc(C(F)(F)F)c2)CC1,"inconclusive: 20 µM [inhibitor, full curve]",
O/N=C1\CCCc2oc3c(c21)CCCC3,"inconclusive: 28.2 µM [inhibitor, full curve, poor fit]",
Cn1c(SCc2ccc(Br)cc2)nc2c(c1=O)SCC2,"inconclusive: 22.4 µM [inhibitor, full curve]",
CCN(C(=S)NC(=O)CCc1ccccc1)c1ccccc1,"inconclusive: 79.4 µM [inhibitor, single point]",
CC1(C)CC(=O)C2=C(C1)N(Cc1ccccc1)C(=O)C2(NC(=O)C(C)(C)C)C(F)(F)F (stereo unspecified),"inconclusive: 89.1 µM [inhibitor, single point]",
COc1ccc(-n2cc(-c3ccccc3)c3c(N4CCCC(C)C4)ncnc32)cc1 (stereo unspecified),"inconclusive: 63.1 µM [inhibitor, partial curve, poor fit]",
Cc1csc(NC(=O)CSc2nnc(Cc3cccn3C)n2CCc2ccccc2)n1,active: 35.5 µM,
CN1CCN(CC(=O)Nc2nnc(-c3cccs3)s2)CC1,active: 11.2 µM,
Cc1cc(SCC(=O)NC(=O)c2cccn2C)nc2ccccc12,"inconclusive: 56.2 µM [inhibitor, partial curve]",
CCOC(=O)c1oc2ccc(Cl)cc2c1NC(C)=O,"inconclusive: 39.8 µM [inhibitor, single point]",
CCCOc1ccc(Cl)cc1/C=C1/C(=O)ON=C1C,active: 7.94 µM,
C=CCn1c(C)cc(C(=O)COC(=O)c2ccc(N)c([N+](=O)[O-])c2)c1C,"inconclusive: 15.8 µM [inhibitor, full curve]",
COc1ccc(C(=O)COC(=O)Cn2[nH]c(=O)c3ccccc3c2=O)c(OC)c1,,inactive: -6.43%
C#CCOCCOCCOCCNc1nc(N2CCN(C(=O)[C@H]([C@@H](C)CC)n3cc([C@@H](N)CO)nn3)CC2)nc(N2CCN(C(=O)[C@H](CCCCN)n3cc([C@@H](N)CC(C)C)nn3)CC2)n1,active: 50.1 µM,

SMILES,Potency,"activity change, negative = inhibition"
CN(C)CCCOC(=O)COc1ccc(C(C)(C)C)cc1,,inactive: -8.51%
O=C(O)c1nccnc1C(=O)Nc1ccc(Cl)cn1,"inconclusive: 31.6 µM [inhibitor, single point]",
Cc1ccc(/C=C/C(=O)c2ccccc(=O)c2O)c(C)c1,"inconclusive: 22.4 µM [inhibitor, full curve]",
C=C(C)C(=O)Nc1cccc(C2=NOC3(C2)C[C@H](C(N)=O)N(C(=O)C(c2ccccc2)c2ccccc2)C3)c1 (stereo partly specified),active: 11.2 µM,
CC(NCC1(N2CCOCC2)CCCCC1)C(=O)Nc1ccc(Cl)cc1Cl (stereo unspecified),,inactive: -14.8%
Brc1ccccc1OCCCCn1cnc2ccccc21,,inactive: -6.87%
Cc1ccc(-n2nc3ccc(N)cc3n2)cc1Cl,,inactive: 4.01%
O=[N+]([O-])c1ccc(C2CC(c3ccccc3)=Nc3ccccc3S2)cc1 (stereo unspecified),"inconclusive: 50.1 µM [inhibitor, partial curve]",
COc1ccc(NC(=O)C2CCCN2c2ccc(OC)c(OC)c2)cc1OC (stereo unspecified),,inactive: -13%
CCc1ccc2oc(-c3ccc(OC)cc3)cc(=Nc3cccc(C(=O)O)c3)c2c1,active: 14.1 µM,
CC(C(=O)O)C(=O)O,active: 79.4 µM,
C[N+](C)(C)C/C=C1/COCO1,"inconclusive: 3.98 µM [inhibitor, single point]",
Cc1ccc(S(=O)(=O)NC(N)=NCCC[C@@H](NC(=O)CNC(=O)c2ccccc2)C(=O)Nc2cc(C(F)(F)F)ccc2Cl)cc1,"inconclusive: 63.1 µM [inhibitor, partial curve, poor fit]",
COc1cc2c(cc1OC)CN(C(=O)c1cc(C3CC3)nn1-c1ccccc1)CC2,,inactive: -33.1%
CCOC(=O)C1=C(C)N(c2ccc(C)cc2)C(=O)/C1=C\c1ccc(O)c(OC)c1,active: 8.91 µM,
Cc1cccc(CC(=O)NC2CC(=O)N(c3ccccc3)C2)c1 (stereo unspecified),,inactive: -18.5%
N=C1C(c2ccccc2)=C(O)CN1c1cccc(S(=O)(=O)N2CCOCC2)c1,active: 20 µM,
Cc1ccc(C(=O)NC(=S)Nc2ccc(S(=O)(=O)N3CCN(C)CC3)cc2)cc1,"inconclusive: 79.4 µM [inhibitor, partial curve]",
O=C(N/N=C\c1ccccn1)c1ccccc1O,"inconclusive: 3.98 µM [inhibitor, full curve, poor fit]",
O=C(Oc1c(Cl)cc(Cl)c2cccnc12)c1cccc([N+](=O)[O-])c1,"inconclusive: 39.8 µM [inhibitor, single point]",
Cc1ccc(Cn2c(CO)cnc2SCc2cccc(F)c2)cc1,"inconclusive: 56.2 µM [inhibitor, partial curve, poor fit]",
Cc1cc(C)nc(SCCC(=O)N(C)C)n1,"inconclusive: 100 µM [inhibitor, single point]",
CCOc1cccc(/C=N/NC(=O)c2ccc3c(c2)OCCO3)c1O,"inconclusive: 14.1 µM [inhibitor, full curve, poor fit]",

# From PubChem BioAssay AID504339 (National Center for Advancing Translational Sciences (NCATS), 2011)
